PubChem BioAssay AID1030 (National Center for Advancing Translational Sciences (NCATS), 2008)
Screen size: about 220,000 compounds; about 16,000 (7.3%) were called active. The shares of active, inactive and inconclusive entries below differ from those in the screen. The call rests on the fitted dose curve; in most records, active means well fitted inhibition curve with a large enough effect (not every such curve was filed as active); inconclusive means small, poorly fitted or top-dose-only effect, or another doubt; inactive means no such curve, though single readings can be large or run the other way. No potency is given beside an inconclusive call; the fits are too rough.
Potency means the concentration at half of the fitted maximal effect; tags describe the fitted curve by direction and shape.
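Wherever activity, negative = inhibition is given: plate controls were no enzyme wells and a reference inhibitor.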

These compounds were tested against Aldehyde dehydrogenase 1A1 (Homo sapiens) (UniProt P00352) (assay: qHTS Assay for Inhibitors of Aldehyde Dehydrogenase 1 (ALDH1A1)). Conditions: Purified ALDH1A1, NADH fluorescence, propionaldehyde substrate; series mostly up to 75.3 µM; activity, negative = inhibition: at the top concentration.
Sequence of UniProt P00352 (P00352 whole entry, looked up): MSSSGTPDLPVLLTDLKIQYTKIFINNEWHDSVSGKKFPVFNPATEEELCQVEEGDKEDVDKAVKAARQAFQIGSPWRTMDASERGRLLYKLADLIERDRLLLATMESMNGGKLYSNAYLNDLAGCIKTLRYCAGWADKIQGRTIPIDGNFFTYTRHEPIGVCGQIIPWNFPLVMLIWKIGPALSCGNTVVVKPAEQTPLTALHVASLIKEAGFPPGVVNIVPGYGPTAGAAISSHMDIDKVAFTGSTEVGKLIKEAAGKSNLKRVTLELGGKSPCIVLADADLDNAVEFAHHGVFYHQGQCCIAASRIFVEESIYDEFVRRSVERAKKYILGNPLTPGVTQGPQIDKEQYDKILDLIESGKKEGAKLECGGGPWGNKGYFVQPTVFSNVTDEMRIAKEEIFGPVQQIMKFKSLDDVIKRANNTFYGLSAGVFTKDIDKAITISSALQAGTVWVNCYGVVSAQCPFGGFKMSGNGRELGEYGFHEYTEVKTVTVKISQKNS
`CC1(C)CC(=O)C2=C(C1)N(Cc1ccco1)C(=O)C2(NC(=O)c1cccnc1)C(F)(F)F` (stereo not given) was tested, and the Potency was inconclusive [inhibitor, single point]. In the case of `CCc1c2c(nc3cccc(OC)c13)OC(CC)C2` (stereo not given), the Potency was inconclusive [inhibitor, single point]. In the case of `O=C(NCCC1=CCCCC1)c1ccc2c(c1)N(Cc1ccccc1)C(=O)CS2`, the Potency was inconclusive [inhibitor, partial curve]. In the case of `COc1ccc(N2CCSC2C(=O)NN)cc1` (stereo not given), the Potency was active: 3.16 µM. `N#Cc1nc(-c2cccs2)oc1N1CCOCC1` was tested, and the Potency was inconclusive [inhibitor, partial curve]. In the case of `COc1ccc(O[C@H]2C=C[C@@H](c3ccccc3)O[C@@H]2CON=C(C)C)cc1`, the activity, negative = inhibition was inactive: 3.27% [at 13.5 µM]. For `O=C(Nc1ccccc1Br)c1ccccc1-c1ccccc1`, the “activity, negative = inhibition” value was inactive: 3.74%. `COCCNC(=O)C(OC(=O)CC1Sc2ccccc2NC1=O)c1ccccc1` (stereo not given) was tested, and the Potency was inconclusive [inhibitor, single point]. For `Cc1cc(Br)cc(C)c1OCCCCN(C)C`, the Potency was inconclusive [inhibitor, partial curve, poor fit]. With `Cc1cc(C)c2c(N=NN3CCCCC3)[nH]nc2n1` the Potency was inconclusive [inhibitor, single point]. With `N#Cc1ccsc1NC(=O)CN1CCN(c2ccc(O)cc2)CC1` the Potency was inconclusive [inhibitor, single point]. In the case of `COC(=O)C1=C(N)Oc2cc(N(C)C)ccc2C1c1ccccc1OC` (stereo not given), the “activity, negative = inhibition” value was inactive: -9.92%. In the case of `COc1ccc(CNc2ccc3c(c2)nc(C)n3C)cc1`, the Potency was inconclusive [inhibitor, single point]. With `CC(C(=O)NN)c1ccc([N+](=O)[O-])cc1` (stereo not given) the “activity, negative = inhibition” value was inactive: -7.36%. In the case of `COc1ccccc1NC(=O)Nc1ccnn1Cc1cccs1`, the Potency was inconclusive [inhibitor, single point]. `COC(=O)c1cc2c(ccn2-c2ccc(F)cc2)n1Cc1ccc(OC)cc1` was tested, and the Potency was inconclusive [inhibitor, partial curve]. For `CS(=O)(=O)N1CCCC(C(=O)NC2CCCCCCC2)C1` (stereo not given), the Potency was inconclusive [inhibitor, single point]. In the case of `COC(=O)c1ccc(NC(=O)CSc2nnc(CNc3ccc(OC)cc3)n2C)cc1`, the Potency was active: 28.2 µM. For `O=c1[nH]cc(CS(=O)(=O)Cc2c[nH]c(=O)[nH]c2=O)c(=O)[nH]1`, the activity, negative = inhibition was inactive: -12.4% [at 13.5 µM]. With `Cc1ccc(C)c2[nH]c(=O)c(CN(Cc3nnnn3C3CCCCC3)CC3CCCO3)cc12` (stereo not given) the Potency was active: 1.78 µM. `COc1ccc2c(c1)CCC1=C2NC(=S)NC1c1ccc(N(C)C)cc1` (stereo not given) was tested, and the Potency was active: 2.82 µM. For `COc1ccc(/C=C/C(=O)c2ccc(O)cc2O)cc1OC`, the Potency was inconclusive [inhibitor, single point]. With `Oc1[nH]c2ccccc2c1N=NC(=S)NCCc1ccccc1` the Potency was inconclusive [inhibitor, single point]. `O=S(=O)(NN=C1CCCCCCC1)c1ccc(Br)cc1` was tested, and the Potency was active: 11.2 µM. In the case of `Cc1ccc(-c2nc(N/N=C/c3ccncc3)c3ccccc3n2)cc1`, the Potency was inconclusive [inhibitor, full curve]. In the case of `Nc1ccccc1C(=O)C[C@@H](N)C(=O)O`, the “activity, negative = inhibition” value was inactive: 0.324%. In the case of `C/C(=N\NC(=O)c1cccnc1)c1c(O)cc(C)oc1=O`, the Potency was active: 25.1 µM. `Cc1cc(=O)n2cccc(O)c2n1` was tested, and the Potency was inconclusive [inhibitor, partial curve]. For `Cc1ccc(S(=O)(=O)/N=C(/NC(=S)Nc2ccccc2)c2ccccc2)cc1`, the Potency was inconclusive [inhibitor, single point]. `Cn1c(CCCOc2ccc(Cl)cc2Cl)nnc1SCC(=O)Nc1ccc(F)c(Cl)c1` was tested, and the “activity, negative = inhibition” value was inactive: 5.03%. In the case of `CCOC(=O)N1CCN(c2cc(N3CCN(CC)CC3)c(F)cc2[N+](=O)[O-])CC1C` (stereo not given), the Potency was inconclusive [inhibitor, single point]. For `CC(=O)c1ccc(N2CCN(C(=O)CCCc3nc4ccccc4s3)CC2)cc1`, the Potency was inconclusive [inhibitor, full curve]. `CC1(C)N=C(SCC(=O)Nc2ccccc2)C(c2ccc(Cl)cc2)=N1` was tested, and the “activity, negative = inhibition” value was inactive: -3.8%. For `CC(=O)NNc1nc(-c2ccc(C)cc2)cs1`, the Potency was inconclusive [inhibitor, single point]. With `COc1cccc(S(=O)(=O)Nc2ccc(C(=O)Nc3ccncc3)cc2)c1` the “activity, negative = inhibition” value was inactive: -6.33%. In the case of `Cc1ccc(N2NC(C)(c3cccs3)NC2=S)cc1` (stereo not given), the Potency was active: 17.8 µM. `c1ccc(-c2nc(C3CCCCC3)no2)cc1` was tested, and the “activity, negative = inhibition” value was inactive: 3.08%. `COc1ccc(C(=S)N2CCCCC2)cc1Br` was tested, and the “activity, negative = inhibition” value was inactive: -3.57%. With `COCCCNC(=O)CS(=O)Cc1nc(-c2cccc(OC)c2)oc1C` (stereo not given) the Potency was inconclusive [inhibitor, single point]. For `CN(C)CCCSc1nc2ccccc2s1`, the Potency was inconclusive [inhibitor, single point]. For `COc1cc2c(cc1OC)C(CCN)=NCC2`, the activity, negative = inhibition was inactive: -7.42% [at 13.5 µM]. `Cc1noc(NS(=O)(=O)c2ccc(NC(=O)CSc3nc4ccccc4s3)cc2)c1C` was tested, and the Potency was active: 10 µM. In the case of `COc1cc(OC)cc(C(=O)NCC(=O)OCC(=O)N2CC(C)CC(C)C2)c1` (stereo not given), the Potency was inconclusive [inhibitor, single point]. For `CCN1CCN(CCn2c(=S)[nH]c3ccccc3c2=O)CC1`, the “activity, negative = inhibition” value was inactive: -4.64%. In the case of `COc1ccc(S(=O)(=O)NCCSc2ccc(Cl)cc2)cc1OC`, the Potency was inconclusive [inhibitor, single point]. In the case of `O=S(=O)(NCCOCCNS(=O)(=O)c1ccccc1)c1ccccc1`, the Potency was active: 25.1 µM. For `N#C/C(=C\c1ccc(OCC(N)=O)cc1)S(=O)(=O)c1ccccc1`, the Potency was inconclusive [inhibitor, single point]. `CN1CCN(c2nc3c(c(=O)n(C)c(=O)n3C)n2CC(=O)C23CC4CC(CC(C4)C2)C3)CC1` was tested, and the Potency was inconclusive [inhibitor, single point]. In the case of `CCOC(=O)Cn1nnnc1CN(CCc1ccccc1)Cc1cc2cc(CC)ccc2[nH]c1=O`, the Potency was inconclusive [inhibitor, single point]. `Cc1ccc(-c2cc(C(F)(F)F)c(C#N)c(=O)[nH]2)cc1` was tested, and the Potency was inconclusive [inhibitor, partial curve]. For `O=S(=O)(CCc1nc2ccccc2s1)c1ccc2ccccc2c1`, the Potency was inconclusive [inhibitor, partial curve]. With `O=C(N/N=C\c1ccc(COc2ccc([N+](=O)[O-])cc2)o1)c1cccc(Cl)c1` the “activity, negative = inhibition” value was inactive: -11.5%. `CC1(C)CC(=O)C2=C(C1)OC(N)=C(C#N)C2C#Cc1ccccc1` (stereo not given) was tested, and the Potency was active: 1 µM. For `CN1CCN(NC(=S)NC2CCCC2)CC1`, the “activity, negative = inhibition” value was inactive: 0.634%. `Fc1cccc(Oc2nc3ccccc3n3cccc23)c1` was tested, and the Potency was inconclusive [inhibitor, single point]. With `COC(=O)CC1=COC(O)C2C(CO)=CC[C@@H]12` (stereo not given in full) the activity, negative = inhibition was inactive: -3.04% [at 13.5 µM]. `C=CCn1c(=O)n(C(=O)OCC)c2cc(Br)ccc21` was tested, and the Potency was inconclusive [inhibitor, single point]. With `C/C(=N\NS(=O)(=O)c1ccc(Br)cc1)c1cccs1` the Potency was inconclusive [inhibitor, partial curve]. For `CN(C)/C=N/c1nc2nccc(-c3cccc(Cl)c3)n2n1`, the Potency was inconclusive [inhibitor, partial curve]. For `CCCCn1c(=O)n(CC(=O)Nc2ccc(OC)c(Cl)c2)c(=O)c2c1nc(CO)n2CCC`, the Potency was inconclusive [inhibitor, single point]. With `CCc1cccc2c(C(=O)CCl)c[nH]c12` the Potency was active: 8.91 µM. `CC(C)COC(=O)NCCCOC(=O)Nc1ccccc1` was tested, and the Potency was active: 22.4 µM. `CN1CCN(C2=Cc3cc(Cl)ccc3Sc3cc(F)ccc32)CC1` was tested, and the “activity, negative = inhibition” value was inactive: -9.64%. With `COc1ccc(S(=O)(=O)N(C)C2CCN(C)CC2)cc1` the Potency was inconclusive [inhibitor, partial curve, poor fit]. In the case of `CC(C)=N[C@H](C(=O)O)C(C)(C)S`, the Potency was inconclusive [inhibitor, single point]. For `Cc1cc(C)c2[nH]c(=O)c(CN(Cc3ccccc3)C(=S)NCCCN(C)C)cc2c1`, the Potency was inconclusive [inhibitor, single point]. With `CC1CCc2c(sc3nc(CN4CCOCC4)nc(NS(=O)(=O)c4cccc([N+](=O)[O-])c4)c23)C1` (stereo not given) the Potency was active: 4.47 µM. `COc1ccccc1-n1cnnc1SCC(=O)Nc1nc(C)c(Cl)cc1Cl` was tested, and the Potency was inconclusive [inhibitor, single point]. `COC(=O)c1ccc(/C=N/Nc2nc(C)c(C)s2)cc1` was tested, and the Potency was inconclusive [inhibitor, single point]. With `Cc1cc(C)c(OCCCCN(C)C)c(Br)c1` the Potency was active: 22.4 µM. In the case of `CC1CC(C)CN(C(=O)c2ccc3c(=O)n(Cc4ccc5c(c4)OCO5)c(=S)[nH]c3c2)C1` (stereo not given), the Potency was active: 1.41 µM. In the case of `COc1ccc(Nc2nc(C)cc(C)c2C#N)cc1`, the Potency was inconclusive [inhibitor, single point]. For `O=C(O)c1ccc(N2CC3CC(C2)c2cccc(=O)n2C3)c(NC(=S)Nc2ccc(Br)cc2)c1` (stereo not given), the Potency was inconclusive [inhibitor, single point]. `COc1cc(CN(C)Cc2nc3cc(C(F)(F)F)ccc3c(=O)[nH]2)ccc1OC(F)F` was tested, and the “activity, negative = inhibition” value was inactive: 6.49%. `CCCCCCCC(O)CC(CC1CCCCC1)C(=O)NN` (stereo not given) was tested, and the Potency was inconclusive [inhibitor, partial curve].
